In assay [1] the target is T1, CD98hc on the surface of human tumor cell lines (human, UniProt P08195 1-529, On cells it is disulfide-linked to an SLC7-family light chain that the patent does not specify. That chain is not given.).
T1 construct: also called 4F2hc; 4F2 antigen
T1 sequence: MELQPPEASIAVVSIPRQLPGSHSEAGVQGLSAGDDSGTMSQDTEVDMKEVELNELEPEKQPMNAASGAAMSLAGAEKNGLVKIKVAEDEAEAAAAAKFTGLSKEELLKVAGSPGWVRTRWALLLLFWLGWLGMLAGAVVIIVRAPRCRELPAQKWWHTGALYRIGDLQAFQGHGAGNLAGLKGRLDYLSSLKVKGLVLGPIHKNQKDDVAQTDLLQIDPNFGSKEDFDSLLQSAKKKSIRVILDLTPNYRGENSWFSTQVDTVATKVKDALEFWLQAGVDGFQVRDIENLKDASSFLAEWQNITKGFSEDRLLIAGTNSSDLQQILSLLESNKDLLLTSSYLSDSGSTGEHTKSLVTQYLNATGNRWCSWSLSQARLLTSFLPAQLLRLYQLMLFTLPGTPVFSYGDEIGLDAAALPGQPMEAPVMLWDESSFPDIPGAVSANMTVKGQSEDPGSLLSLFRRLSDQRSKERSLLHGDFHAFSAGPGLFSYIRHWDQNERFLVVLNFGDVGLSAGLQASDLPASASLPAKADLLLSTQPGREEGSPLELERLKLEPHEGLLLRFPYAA
As to the kind of experiment: flow cytometry on A-549 cells, 5 µg/mL scFv, 4° C., 120 min. (In general: Flow cytometry measures light scatter and fluorescence of single cells or particles in a stream.)

For assay [2], the target named is T1, CD98hc on the surface of human tumor …. As to the kind of experiment: flow cytometry on A-549 cells, 5 µg/mL scFv, 37° C., 120 min (surface-bound scFv left after internalization).
Assay [3] has the same target. The experiment in a line: flow cytometry, 1 µg/mL scFv; average of pancreas cell lines PANC-1, BxPC-3, MIA PaCa-2 (± SEM).
For assay [4] the target is unchanged. The experiment in a line: flow cytometry, 1 µg/mL scFv; average of ovarian cell lines NIH-OVCAR3, SKOV-3, TOV-112D (± SEM).
The target is the same in assay [5]. As to the kind of experiment: flow cytometry, 1 µg/mL scFv; average of lung cell lines A549, NCI-H460, NCI-H69 (± SEM).
For assay [6] the target is unchanged. As to the kind of experiment: flow cytometry on A-549 cells, 5 µg/mL scFv, 37° C., 60 min (surface-bound scFv left after internalization).
Assay [7] has the same target. The experiment in a line: flow cytometry saturation curve on A-549 cells, Lineweaver-Burk method.
The target is the same in assay [8]. As to the kind of experiment: flow cytometry, 1 µg/mL scFv; average of stomach cell lines AGS, NCI-N-87, Kato III (± SEM).
The target is the same in assay [9]. As to the kind of experiment: flow cytometry, 1 µg/mL scFv; average of prostate cell lines DU-145, PC-3, LNCaP (± SEM).
For assay [10] the target is unchanged. As to the kind of experiment: flow cytometry, 1 µg/mL scFv; average of cervix cell lines ME-180, C-4I, C-33A (± SEM).
The target is the same in assay [11]. The experiment in a line: flow cytometry, 1 µg/mL scFv; average of liver cell lines SK-Hep1, HepG2 (± SEM).
For assay [12] the target is unchanged. As to the kind of experiment: flow cytometry, 1 µg/mL scFv; average of colon cell lines HT-29, WiDr, SW-480 (± SEM).
Assay [13] shares this target. As to the kind of experiment: flow cytometry, 1 µg/mL scFv; average of breast cell lines MDA-MB-435S, MDA-MB231, MCF-7 (± SEM).

Consider one molecule from patent US20080085241A1 (AFFITECH, published 2008).

One may read the Kd as the free concentration of one partner at which half of the binding sites on the other are occupied at equilibrium, for simple one-to-one binding. Read a low Kd as a tighter complex.

B1: VB2-169 (scFv)
scFv: QVQLVESGGGLVKPGGSLRLSCAASGFTFSDYYMSWIRQAPGKGLEWVSYISSSGSTIYYADSVKGRFTISRDNAKNSLYLQMNSLRAEDTAVYYCARSSGWYDGEFDPWGQGTLVTVSSKLSGSASAPKLEEGEFSEARVSYVLTQPPSASGTPGQRVTIS[about 80 residues not written out]FGGGTKVTVL
On to B1, for which the “Fold-increase in MF above the negative control, 4B5 scFv” value in [1] is 12.6 fold; in assay [2], 2.43 fold; in assay [6], 2.9 fold. Also, the “mean fold increase in median fluorescence over the scFv control (MF)” value turned out to be 3.68 fold in assay [3]; 4.58 fold in [4]; 2.77 fold in assay [5]; 4.24 fold in assay [8]; 4.36 fold in [9]; 4.29 fold in assay [10]. Also, the “mean fold increase in median fluorescence over the scFv control (MF)” value came out at 2.22 fold in assay [11], 3.7 fold in assay [12] and 4.28 fold in [13]. The dissociation constant Kd in assay [7] amounted to 56 nM.
